Experimental data: the supplement of paper PMC3334620
In all, about 33,000 sequences were measured (“E-score (-0.5 to 0.5)”: median about -0.032, highest 2% from about 0.36 on). This is one part of the list.

target: T1, Sko1 (UniProt Q02100); assay: PBM E-score (8-mer binding enrichment) (E-score (-0.5 to 0.5)); higher = stronger / more preferred TF binding; most listed sequences are background and not binding sites; settings: protein concentration: 200 nM; construct: GST-full length
T1 sequence: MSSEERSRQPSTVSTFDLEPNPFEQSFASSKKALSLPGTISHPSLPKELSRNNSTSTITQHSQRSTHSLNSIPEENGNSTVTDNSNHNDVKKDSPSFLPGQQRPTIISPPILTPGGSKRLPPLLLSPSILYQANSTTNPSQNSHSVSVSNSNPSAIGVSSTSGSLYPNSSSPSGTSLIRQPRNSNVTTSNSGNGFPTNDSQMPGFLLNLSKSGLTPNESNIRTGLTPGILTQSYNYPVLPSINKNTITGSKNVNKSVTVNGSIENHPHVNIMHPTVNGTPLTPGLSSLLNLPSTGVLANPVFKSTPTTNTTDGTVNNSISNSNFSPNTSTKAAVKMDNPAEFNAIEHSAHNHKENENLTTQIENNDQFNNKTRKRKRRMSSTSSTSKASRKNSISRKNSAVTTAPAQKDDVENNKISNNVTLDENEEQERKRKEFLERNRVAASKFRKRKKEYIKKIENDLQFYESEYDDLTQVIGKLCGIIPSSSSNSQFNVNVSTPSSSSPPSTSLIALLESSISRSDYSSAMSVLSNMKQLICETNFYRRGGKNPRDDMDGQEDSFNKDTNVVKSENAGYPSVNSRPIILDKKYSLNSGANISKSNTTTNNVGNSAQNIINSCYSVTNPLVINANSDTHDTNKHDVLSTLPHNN
Method in brief: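 Detection of bound protein used fluorescent anti-GST, with scans normalised by masliner. The proteins were GST-tagged yeast transcription factors applied at about 100-200 nM to universal all-10-mer Agilent arrays made double-stranded by primer extension. Each ungapped eight-base word, pooled with its reverse complement, was scored with an E-score from the Universal PBM Analysis Suite.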

Row | Sequence | PBM E-score
1 | TGCGTCAA | 0.377
2 | TCCGACGA | 0.0655
3 | AGCTTTCC | -0.147
4 | AGAGCCGA | -0.125
5 | ATCCGAAC | -0.19
6 | AGGTGAGA | 0.0124
7 | GGCTATTA | 0.261
8 | CTAGTACA | 0.083
9 | CTCTGTGA | 0.0354
10 | CGTACCAA | 0.229
11 | ACGTGATG | 0.442
12 | ACCACGAA | 0.131
13 | GTGGACGA | 0.11
14 | AAACAGCG | 0.0903
15 | ATGGCAGC | -0.235
16 | AGGAAAAC | -0.108
17 | CTCACTGC | -0.114
18 | TTTAAAAA | 0.234
19 | GACTATTA | 0.0115
20 | AGGGAATC | -0.153
21 | ATAACGAT | 0.154
22 | CATGTAGG | 0.111
23 | ATGGATAA | -0.0663
24 | AGCCGTCG | -0.145
25 | AGGGAAGA | -0.21

Row | Sequence | PBM E-score
26 | ACTGCGCG | 0.0146
27 | AAATACTG | -0.00639
28 | CACGGAGG | -0.209
29 | CAAGTATA | -0.0893
30 | CATACGGG | -0.0866
31 | AGTAATGC | 0.0678
32 | AACCGAGA | -0.154
33 | ATTCGTAG | 0.324
34 | CGAGGCTC | -0.124
35 | CACGCGGG | -0.0357
36 | CTAGCGGA | -0.309
37 | GTAAACCA | -0.0918
38 | CTCCCCAC | -0.00257
39 | GCTAGCCC | -0.26
40 | TCGACAAA | 0.163
41 | ATTTTCAG | 0.0915
42 | GGTAAGAA | -0.19
43 | ATCCTCTA | -0.0602
44 | ATGGCTAG | -0.0737
45 | AACGTCGG | 0.182
46 | ATAGCTTA | 0.139
47 | CATGATGC | 0.258
48 | AGGAGACC | -0.279
49 | CGTGTGCC | 0.204
50 | ATGGCGCG | 0.00027

Row | Sequence | PBM E-score
51 | GCAGCCCC | -0.351
52 | CCGTGCGC | -0.067
53 | GGATATTA | 0.108
54 | ACCTTACG | 0.338
55 | AGATGCAT | -0.0801
56 | CAACTCAG | -0.198
57 | CACCCAAA | 0.00176
58 | ACCAATAA | 0.149
59 | CTGCGTAA | 0.397
60 | CTTTTGCA | 0.057
61 | TCCAGGAA | -0.07
62 | CCATAGGA | -0.101
63 | AAATTCAG | 0.0894
64 | ATCCAGAG | -0.0594
65 | GTGCAAAA | 0.059
66 | GAACCACC | 0.166
67 | AGTCAGCG | -0.162
68 | CTTGACGC | 0.262
69 | TCCCCTAA | -0.0831
70 | TCGCAAGA | -0.167
71 | ACTGCTGC | -0.0429
72 | GTCGGAGA | -0.0708
73 | ACTTGCGG | -0.118
74 | ACCAGCTG | -0.229
75 | TACGTACA | 0.477

Row | Sequence | PBM E-score
76 | AAGTCAGG | -0.225
77 | GGCCCCAA | -0.198
78 | CGCTAGGC | -0.223
79 | CATATCAA | 0.254
80 | AAGATAGA | -0.0614
81 | CAGGTATA | 0.143
82 | AGCCGAAT | -0.104
83 | AACGCTGG | -0.0614
84 | ACGTATTC | 0.471
85 | CCTTATCG | 0.0516
86 | GCTTCGCC | -0.395
87 | AGGTACGC | 0.106
88 | CCAGACCC | -0.305
89 | ACCAGATG | -0.0283
90 | CAGATTCG | -0.0271
91 | CGGGCCCC | -0.275
92 | GGTGACAC | -0.176
93 | AGGCGCCA | -0.218
94 | CCGAGGGA | -0.378
95 | GGGACTCA | -0.277
96 | TCGCACGA | 0.0697
97 | CCTGCTCC | -0.217
98 | AATCATGA | 0.216
99 | TCAAGACA | 0.0143
100 | AGTTTGGC | -0.00421

Row | Sequence | PBM E-score
101 | AATAAAAG | 0.225
102 | CCAAGTCA | -0.234
103 | AAAAACTT | 0.102
104 | CAAACAGG | -0.104
105 | CAGCGGGC | -0.0987
106 | CAGCTCCA | -0.236
107 | AATACAAG | 0.00246
108 | CCGCCCCC | -0.372
109 | CTCGAAAC | 0.0832
110 | AAGCAAAA | 0.114
111 | CACACGGG | -0.16
112 | GCTTCATA | -0.157
113 | CTGTGGGA | -0.196
114 | CAAATACA | 0.229
115 | TAGAGAAA | -0.074
116 | GCGATAGC | -0.0786
117 | CTAATTTC | 0.0649
118 | CATGCGCG | 0.0759
119 | ATCGATCC | -0.0591
120 | CTACGAGA | -0.033
121 | ATGCTTGG | -0.0345
122 | AGAAGAGA | -0.0845
123 | ATTTTTCA | 0.0809
124 | AAGAAGTC | -0.0438
125 | CCTCCCCG | -0.102

Row | Sequence | PBM E-score
126 | TAACCGCA | 0.129
127 | AGGAATTA | 0.25
128 | CGATCAAA | -0.0914
129 | GGTCCGAC | -0.115
130 | AATGGAGC | 0.0282
131 | GGGTTAAA | -0.0218
132 | CTTCTGTA | 0.0515
133 | CAGTTTCG | -0.0121
134 | GCGACCGA | 0.0506
135 | AACTTCCC | -0.0155
136 | CGAGAAAG | -0.0586
137 | AAGTTTGC | 0.0635
138 | CGAGCAGA | -0.331
139 | GCCGCGGC | -0.26
140 | AACGCACA | 0.161
141 | ATCATGGA | -0.0672
142 | ATTTCCTC | 0.129
143 | CATAGCGG | -0.0652
144 | AACTCGTA | 0.262
145 | CGCTCTGC | -0.0705
146 | AGATATCA | 0.192
147 | TGGTATAA | 0.191
148 | GAACTTCC | -0.131
149 | CATAACGC | 0.258
150 | CATAGCGC | 0.103

Row | Sequence | PBM E-score
151 | AAGCTCAG | 0.0194
152 | TAAGCTCA | -0.111
153 | AAACGAAA | 0.263
154 | CGTTTGAG | 0.0755
155 | CCACACGA | -0.00899
156 | TAGGAACA | -0.0725
157 | AACGCGTT | 0.0918
158 | GTTCCCCA | -0.0746
159 | GATGTGAA | 0.112
160 | AAACTTCC | -0.186
161 | GATATACC | 0.0714
162 | AGGAGGGC | -0.249
163 | CTGGGAGC | -0.315
164 | CCATTCCA | -0.215
165 | CCATACCC | -0.162
166 | CGGAGACA | -0.0938
167 | CTGTGGGC | -0.0921
168 | GGCACCGA | -0.111
169 | AAAACATC | 0.117
170 | CAACAGAG | -0.0575
171 | AACGCGTC | 0.216
172 | GCGAAATA | 0.0332
173 | GAAGCAAC | 0.012
174 | CGCGGTGA | -0.0136
175 | ACCCTTAT | 0.0332

Row | Sequence | PBM E-score
176 | CCCCCGGA | -0.278
177 | AATCGCGC | 0.0534
178 | AAAATTCG | 0.18
179 | AGCTCACC | -0.262
180 | AGTCCGAG | -0.174
181 | ACAACCAT | 0.155
182 | AGCACTGG | -0.211
183 | TACTACTA | 0.144
184 | CCACTGAG | -0.259
185 | GATCCAAA | 0.0541
186 | ACCGCATC | -0.161
187 | CGCGATTC | 0.0398
188 | AGATCACC | -0.0409
189 | TACCGGGA | -0.133
190 | AGTACAGA | -0.0198
191 | AACATTAA | 0.216
192 | ACACTCGT | 0.12
193 | CTCATCTA | 0.0872
194 | CGAATCAG | 0.0878
195 | ATACCTAG | -0.115
196 | AAGAGGAG | -0.219
197 | GAGTTATC | -0.0537
198 | CACCTTTA | 0.0252
199 | AGTGTGTA | 0.111
200 | CATCCCAC | -0.188

Row | Sequence | PBM E-score
201 | GATTCAAA | 0.0963
202 | CGGCGCCA | -0.212
203 | CCTGACAC | -0.142
204 | ACGCCCCG | -0.115
205 | CAGAGCCG | -0.144
206 | ACTAATGG | 0.00996
207 | GATAGTGC | -0.0918
208 | CAAATTCA | -0.0704
209 | AATGTCCA | -0.0107
210 | CCACCCGC | -0.18
211 | ACACCACT | -0.00904
212 | GTTTGGGA | -0.0136
213 | AACAAGCT | -0.0722
214 | GTAATTGA | 0.294
215 | ATGGCAAT | 0.0404
216 | CTAGCTAC | -0.105
217 | GACCGGGA | -0.299
218 | GATTTACC | 0.0967
219 | AGATTAGA | -0.0113
